PubChem BioAssay AID1345083 (National Center for Advancing Translational Sciences (NCATS), 2018)
In all, about 94,000 compounds went through this assay and about 6,200 (6.6%) were called active. Inconclusive means that the source gave no clear call. Such entries were picked first, then a sample of the others. Calls come from the whole dose curve; as a rule, active = well fitted inhibition curve with a large enough effect; inconclusive = small, poorly fitted or top-dose-only effect; inactive = flat fitted curve, though single readings scatter. Potencies of inconclusive entries are doubtful fits and often do not repeat.

assay: Cytotoxic Profiling in HEK 293 Cell Line of Diverse Libraries Using Quantitative High-Throughput Screening; conditions: HEK 293 viability, ATP luminescence (CellTiter-Glo), 48-72 h; activity change, negative = cytotoxicity: at 115 µM (top of the series) unless noted; series mostly up to 115 µM; note: nearly all actives have a fitted effect of over 60% in size
Method in brief: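 Cells seeded first (HEK 293, 250 cells/well), then compound added by pintool. Incubation ran 48 or 72 hr at 37 degree Celsius. CellTiter-Glo was added and luminescence imaged after 10 min at room temperature.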
% is set by controls: 0 for no effect and ±100 for the full control effect; potency is the fitted concentration of half-maximal effect; tags give direction and shape of the fitted curve.

| SMILES | Potency | activity change, negative = cytotoxicity | outcome |
| --- | --- | --- | --- |
| Cc1cc(C)n(Cc2ccc(C(=O)N3CCCCCC3c3nnc(-c4ccccc4)o3)o2)n1 (configuration not stated) | inconclusive: 89.1 µM [inhibitor, single point] | – | – |
| CCn1ccnc1CN(C)Cc1cn(Cc2ccccc2)nc1-c1cc2ccccc2o1 | active: 44.7 µM | – | – |
| O=C(c1ccccc1F)N1CCCC1C(=O)N1CCCC1c1nc2ccncc2[nH]1 (configuration not stated) | – | inactive: -2.03% | – |
| COc1ccc(NC(=O)CCC2CCCN(C(=O)c3csc(C(C)=O)c3)C2)cc1Cl (configuration not stated) | inconclusive: 89.1 µM [inhibitor, single point] | – | – |
| O=C(NC1CCN(C(=O)c2ccc(-c3cccs3)cc2)CC1)c1ccccc1 | inconclusive: 44.7 µM [inhibitor, partial curve, poor fit] | – | – |
| COc1ccccc1CCC(=O)N1CCC[C@H]1c1nc(-c2ccccc2)no1 | inconclusive: 70.8 µM [inhibitor, partial curve, poor fit] | – | – |
| O=C(NCc1cccs1)c1ccc(OC2CCN(Cc3ccccn3)CC2)cc1 | inconclusive: 31.6 µM [inhibitor, full curve] | – | – |
| O=C(NC1CCCC1)c1cc(C2CC2)nc2onc(C3CCNCC3)c12 | – | inactive: -16.5% | – |
| COc1ccccc1C(=O)Nc1ccc2c(c1)CN(Cc1ccccc1F)C(=O)C(C)O2 (configuration not stated) | inconclusive: 10 µM [inhibitor, full curve, poor fit] | – | – |
| CN(C)C[C@@H]1CN(S(C)(=O)=O)C[C@H]1NC(=O)CCc1c[nH]c2ccccc12 | – | inactive: -4.87% | – |
| COc1cccc(CNC(=O)C2CCN(C(=O)c3ccc(-c4ccccc4OC)cc3)CC2)c1 | inconclusive: 56.2 µM [inhibitor, partial curve, poor fit] | – | – |
| COc1ccc(-c2nnc3ccc(N4CCN(c5ccccn5)CC4)nn23)nc1 | inconclusive: 79.4 µM [inhibitor, partial curve, poor fit] | – | – |
| Cc1ccc(C(=O)N2CCN(c3cc(-c4ccccc4)[nH]n3)CC2)c(C)c1 | inconclusive: 31.6 µM [inhibitor, partial curve, poor fit] | – | – |
| Cc1ccc([S+](=O)([O-])c2nnn3c2nc(NCc2ccncc2)c2ccccc23)cc1C | – | inactive: -5.28% | – |
| Cc1nn(-c2ccccc2)c2c1C(C1CC1)N(CC1CN(C(=O)c3cccc(Cl)c3)C1)C2=O (configuration not stated) | inconclusive: 28.2 µM [inhibitor, full curve, poor fit] | – | – |
| Cc1nn2c(c1-c1ccccc1C(C)C)N(C(=O)Cc1ccccn1)CCC2 | inconclusive: 89.1 µM [inhibitor, partial curve, poor fit] | – | – |
| O=C(Cc1cccc(Cl)c1)NCc1nnc2ccc(-c3ccccc3)nn12 | inconclusive: 39.8 µM [inhibitor, partial curve, poor fit] | – | – |
| COc1cccc(-c2nc(N3CCOCC3)cc3c2CN(C)C3=O)c1OC | inconclusive: 10 µM [inhibitor, full curve, poor fit] | – | – |
| CC1=C[C@@H](CNC(=O)c2ccccn2)[C@H](C(C)C)C[C@H]1Cc1nnc(-c2ccncc2)o1 | active: 22.4 µM | – | – |
| Cc1noc2c(NCCc3ccccn3)cc(-c3ccc(Cl)cc3)nc12 | inconclusive: 63.1 µM [inhibitor, full curve, poor fit] | – | – |
| O=C(Nc1ccc(Cl)cc1)N1CCC(c2nn(-c3ccc(Cl)cc3)c(=O)[nH]2)CC1 | inconclusive: 50.1 µM [inhibitor, partial curve, poor fit] | – | – |

| SMILES | Potency | activity change, negative = cytotoxicity | outcome |
| --- | --- | --- | --- |
| O=C1CCN(Cc2ccncc2F)CCCC(c2nc(-c3cccnc3)no2)CCN1 (configuration not stated) | inconclusive: 89.1 µM [inhibitor, single point] | – | – |
| Cc1cnc(CCNC(=O)Cc2ccccc2)n1CC1CC1 | – | inactive: -5.42% | – |
| C=CCN(Cc1nc(-c2ccccc2)no1)Cc1nccn1C | inconclusive: 31.6 µM [inhibitor, partial curve, poor fit] | – | – |
| CN1CCCN(S(=O)(=O)c2ccccc2F)c2ccccc21 | inconclusive: 56.2 µM [inhibitor, partial curve, poor fit] | – | – |
| O=C(NCc1cccc(C(F)(F)F)c1)C1CCc2nnc(-c3cccc(C(F)(F)F)c3)n21 (configuration not stated) | inconclusive: 25.1 µM [inhibitor, full curve] | – | – |
| NC(=O)[C@@H]1CCCN1c1ccc(-c2nc(Cc3ccccc3)no2)cn1 | inconclusive: 50.1 µM [inhibitor, partial curve, poor fit] | – | – |
| O=C(NCC1CC1)[C@H]1CN(Cc2ccccc2)C[C@H]1C(=O)O | – | inactive: -21.7% | – |
| COCCCn1c(=O)c(C(=O)N2CCN(C(=O)c3ccccc3)CC2)nc2cccnc21 | – | – | inactive |
| Cc1ccc(-c2nc(-c3nnn4c3COC(c3ccc(C)cc3)C4)no2)cc1 (configuration not stated) | – | inactive: 13% | – |
| O=[S+]1([O-])NCC2(CCN(Cc3ccccc3)CC2)Nc2ccccc21 | inconclusive: 39.8 µM [inhibitor, full curve, poor fit] | – | – |
| COc1ccc(NC(=O)c2ccc(-c3nnc4ccc(NC(=O)C5CCC5)cn34)cc2)cc1 | inconclusive: 3.55 µM [inhibitor, full curve, poor fit] | – | – |
| COc1cccc(CN2C(=O)OC3(CCN(Cc4ccccc4OC)CC3)C2(C)c2cccnc2)c1 (configuration not stated) | inconclusive: 56.2 µM [inhibitor, partial curve, poor fit] | – | – |
| O=C(CN1CCCc2nc(-c3ccncc3)ncc2C1=O)NCCCN1CCCC1=O | – | inactive: -4.73% | – |
| CC(C)Cc1noc(-c2ccc(N3CCCC(C(C)(C)O)C3)nc2)n1 (configuration not stated) | inconclusive: 50.1 µM [inhibitor, partial curve, poor fit] | – | – |
| COc1cccc([S+](=O)([O-])N2CCC3(CC2)C(=NC2CCCCC2)NC(=O)N3c2cc(F)cc(F)c2)c1 | – | inactive: -21.4% | – |
| Cn1nccc1OCc1cn2c(=O)n(C)cc(-c3cccc(OC(F)(F)F)c3)c2n1 | active: 89.1 µM | – | – |
| CCN(Cc1ccco1)C(=O)[C@@H]1CN(c2ncccn2)C[C@H]1COC | – | inactive: -28.9% | – |
| O=C(Cc1ccccc1)N1C[C@@H](CO)[C@@H]2Oc3c(F)cccc3[C@@H]21 | inconclusive: 89.1 µM [inhibitor, single point] | – | – |
| COc1ccc(-c2ccc(C(=O)NCc3ccccc3F)c(Cl)c2)nn1 | inconclusive: 89.1 µM [inhibitor, single point] | – | – |
| COc1ccccc1-c1ccc(C(=O)N2CCC(NC(=O)c3ccc(Cl)cc3)CC2)cc1 | inconclusive: 44.7 µM [inhibitor, partial curve, poor fit] | – | – |
| CCN1c2cc(C(=O)Nc3cc(F)cc(F)c3)ccc2C(=O)N2CCCCCC21 (configuration not stated) | inconclusive: 39.8 µM [inhibitor, full curve, poor fit] | – | – |

| SMILES | Potency | activity change, negative = cytotoxicity | outcome |
| --- | --- | --- | --- |
| NCCc1n[nH]c(=O)n1-c1ccc(Cl)cc1 | – | inactive: -0.0917% | – |
| COc1ccc(-c2cc(C[C@@H]3CC[C@H](O)[C@@H](CNCc4ccccc4OC)O3)no2)cc1 | active: 31.6 µM | – | – |
| COc1cccc(-c2ccc(C(=O)NCCNC(=O)Nc3ccc(C)c(F)c3)cc2)c1 | – | inactive: -6.69% | – |
| O=C1NC(=NC2CCCC2)C2(CCN(Cc3ccncc3)C2)N1c1cccnc1 (configuration not stated) | – | inactive: -14.3% | – |
| CCc1ccccc1S(=O)(=O)N1CCCC(Cn2c(C3CC3)nc3cccnc32)C1 (configuration not stated) | active: 39.8 µM | – | – |
| COCCN1CCCCCC(O)c2cc(C(=O)N3CCN(c4ccccc4F)CC3)ccc21 (configuration not stated) | inconclusive: 50.1 µM [inhibitor, partial curve, poor fit] | – | – |
| O=C(CCC1CCCC1)N1CCCC(c2nc(CCOCC3CCOCC3)no2)C1 (configuration not stated) | inconclusive: 44.7 µM [inhibitor, partial curve, poor fit] | – | – |
| CC(C)NC(=O)N1CCN2C(=O)c3cc(-c4ccc5c(c4)OCO5)ccc3NC(=O)[C@H]2C1 | inconclusive: 89.1 µM [inhibitor, single point] | – | – |
| CC(C)CNC(=O)Cc1ccc(N(Cc2cccc(F)c2)C(=O)c2ccco2)cc1 | inconclusive: 50.1 µM [inhibitor, partial curve, poor fit] | – | – |
| COc1cccc(NC(=O)C2=NO[C@@H]3CN(Cc4ccc(F)cc4)C[C@H]23)c1 | inconclusive: 100 µM [inhibitor, partial curve, poor fit] | – | – |
| COc1ccccc1-c1ccc(CN2CCC(N[S+](C)(=O)[O-])C2)cc1 (configuration not stated) | inconclusive: 56.2 µM [inhibitor, partial curve, poor fit] | – | – |
| O=C(NCC1CCCN(Cc2ncccn2)C1)c1ccc(-c2ccccc2)cc1 (configuration not stated) | inconclusive: 50.1 µM [inhibitor, partial curve, poor fit] | – | – |
| COc1cc(F)cc(-c2ncc3c(n2)OCCN(Cc2ccc(F)cc2F)C3=O)c1 | inconclusive: 31.6 µM [inhibitor, full curve] | – | – |
| CCN1c2cc(C(=O)Nc3ccc4c(c3)CCC4)ccc2C(=O)N2CCCCC21 (configuration not stated) | active: 22.4 µM | – | – |
| COc1cccc(Nc2ncc3c(n2)C(C)(C(=O)NCC2CC2)CC3)c1 (configuration not stated) | active: 50.1 µM | – | – |
| Cc1nn(-c2ccccc2)c2c1C(C)N(C1CCN(C(=O)C3CCCC3)C1)C2=O (configuration not stated) | inconclusive: 50.1 µM [inhibitor, partial curve, poor fit] | – | – |
| COCc1nc(-c2ccc(OC3CN(C(=O)Nc4cccc(C)c4)C3)cc2)no1 | inconclusive: 50.1 µM [inhibitor, partial curve, poor fit] | – | – |
| CCCCCNC(=O)c1cc(-c2ccccc2OC)nc2c1cnn2C | – | inactive: -29.7% | – |
| c1ccc(CCc2noc(-c3ccc(N4CCCOCC4)nc3)n2)cc1 | inconclusive: 50.1 µM [inhibitor, partial curve, poor fit] | – | – |
| CCc1cc(=O)n(CC(=O)Nc2cccc(C(C)=O)c2)c(N2CCOCC2)n1 | inconclusive: 89.1 µM [inhibitor, single point] | – | – |
